In general, inhibition refers to the relative decrease from the control value, in per cent.

SMILES strings stand for the structures. In all, about 340,000 compounds went through this assay and about 6,900 (2%) were called active. Cut-off read from the data, not from the text of the source: active = inhibition above about 30%; inactive = below that, where a call was filed. The entries are a selection whose mix differs from that of the whole data set. The source gives no active or inactive call for entries shown without one. More than one record can exist for a structure, and the calls need not agree.

Chain of UniProt P14416 (P14416 whole entry, looked up): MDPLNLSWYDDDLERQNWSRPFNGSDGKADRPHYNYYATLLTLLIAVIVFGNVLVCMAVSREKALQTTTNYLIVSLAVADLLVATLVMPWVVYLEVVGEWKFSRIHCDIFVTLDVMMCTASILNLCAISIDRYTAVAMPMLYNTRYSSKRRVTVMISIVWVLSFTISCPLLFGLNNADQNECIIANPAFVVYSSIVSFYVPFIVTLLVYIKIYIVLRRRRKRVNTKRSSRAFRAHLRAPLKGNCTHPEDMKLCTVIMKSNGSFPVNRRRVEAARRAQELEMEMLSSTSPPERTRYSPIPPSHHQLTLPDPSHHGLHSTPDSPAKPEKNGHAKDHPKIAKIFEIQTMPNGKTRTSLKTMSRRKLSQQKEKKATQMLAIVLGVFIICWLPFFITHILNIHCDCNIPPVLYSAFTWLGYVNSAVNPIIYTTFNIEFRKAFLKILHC

This assay deals with D(2) dopamine receptor (Homo sapiens) (UniProt P14416). Kind of assay: HTS Assay for Allosteric Antagonists of the Human D2 Dopamine Receptor: Primary Screen for Antagonists. Note: 0% is about no effect. To be noted: HEK293 TREx D2 cells, calcium flux, dopamine EC80; at 10 µM; stronger effect = higher value. In short, it runs like this:
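Tetracycline-induced HEK293 T-REx cells expressing D2 force-coupled to calcium signalling were dye-loaded, exposed to compound for 180 s, then challenged with an EC80 of dopamine; calcium flux was followed kinetically for a further 180 s.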
On the technique in general: A change in cytosolic calcium serves as a functional read-out for many receptors and channels.
Consider `CN1C[C@H](C(=O)N[C@]2(C)O[C@@]3(O)[C@@H]4CCCN4C(=O)[C@H](Cc4ccccc4)N3C2=O)CC2c3cccc4[nH]cc(c34)C[C@H]21` (stereo partly drawn), for which the inhibition was active: 88.1%. The same measure for `COc1ccc(N2CCN(S(=O)(=O)CCNC(=O)c3ccc(C(F)(F)F)cc3)CC2)cc1`: -6.79%; for `CCOC(=O)c1cc(OC(=O)c2ccc(Cl)cc2)n(-c2ccccc2)n1`: 18.9%.

As for `Cc1ccc(N(CC(=O)N2CCN(c3ccc(Cl)cc3)CC2)S(=O)(=O)c2c(C)noc2C)cc1`, the inhibition is -17.6%. Take `COc1ccc(C2C(=O)N(C3CCCCC3)CC(=O)N2Cc2ccccc2Cl)cc1OC` (stereo not drawn): the inhibition is -0.232%. The same measure for `CCN(CC)C(=O)c1ccc(C)c(Br)c1`: active: 31.3%; for `COc1ccc(-c2nn(CC(=O)Nc3ccccc3F)c3c2cnc2ccc(F)cc23)cc1`: 0.675%; for `Cc1ccc(N2CCN(C(=O)c3ccc4c(Cl)c5c(nc4c3)CCCC5)CC2)c(C)c1`: 8.62%. Then `O=C(Nc1ccc(F)cc1F)c1c2c(nc3ccccc13)C(=O)N(C1CCCCC1)C2`, with 5.19%; and `Cc1noc(C)c1S(=O)(=O)N(CC(=O)NCc1ccccc1Cl)c1ccc(C(C)C)cc1`, with -12.2%. Then `O=C(NCc1cccs1)C1CCN(C(=O)N2CCOc3ccccc32)CC1`, with 23.5%; and `O=C(Nc1c(-c2ccccc2)nc2ccccn12)c1ccc(Br)cc1`, with 5.38%; and `O=C(CSc1nc2c([nH]c3ccccc32)c(=O)n1-c1ccccc1)c1ccccc1`, with 9.1%.

Consider `CCOc1ccc(C2C(=O)N(C3CCCCCC3)CC(=O)N2CCc2ccccc2)cc1OC` (stereo not drawn), for which the inhibition is 10.9%. Then `CCOc1ccc(CCNC(=O)c2cnc3sc(N4CCOCC4)nn3c2=O)cc1`, with -12.3%; and `CCC1CCCCN1C(=O)c1nn(-c2ccc(C)cc2)c(=O)c2c1c1ccccc1n2C` (stereo not drawn), with 12.5%. For the molecule `COc1ccc(Cn2ccnc2SCC(=O)NCc2ccccc2)cc1`, the inhibition came to 0.452%.

`COc1ccccc1-c1ccnc2[nH]n(-c3ccccc3)c(=O)c12`: the inhibition is -1.31%. The same measure for `CCc1cccc(C)c1NC(=O)Cn1c(=O)cc(C(F)(F)F)c2c(C)nn(C)c21`: -2.82%. For the molecule `CCOc1ccc(C(=O)Nc2ccc(S(=O)(=O)N3CCCCC3c3cccnc3)cc2)cc1` (stereo not drawn), the inhibition was 4.24%. The same measure for `Cc1ccc(C)c(S(=O)(=O)NCC(c2ccco2)S(=O)(=O)c2ccc(F)cc2)c1` (stereo not drawn): -17.7%; for `Cc1coc2c(C)c3oc(=O)c(CC(=O)N4CCCCC4)c(C)c3cc12`: -9.22%; for `COC(=O)c1ccc(NC(=O)Cc2coc3cc(C)ccc23)cc1`: 8.54%.

As for `COc1ccc(-c2nc3nc(C)cc(Nc4ccc(C(C)=O)cc4)n3n2)cc1`, the inhibition is -0.621%. `COc1ccccc1NC(=O)Cn1c(=O)n(Cc2ccccc2)c(=O)c2ccccc21`: the inhibition is -11.7%. Then `COc1ccc(CN2COc3ccc4c(C)cc(=O)oc4c3C2)cc1`, with 0.165%; and `COc1cccc(NC(=O)c2oc3ccccc3c2NC(=O)C23CC4CC(CC(C4)C2)C3)c1`, with 2.54%; and `COc1ccc(NC(=O)C(=O)NCCc2csc(-c3ccc(Cl)cc3)n2)cc1`, with 6.43%. In the case of `O=C(CCn1c(=O)c2cccn2c2ccc(F)cc21)NCCc1ccccc1Cl`, the inhibition is 16.5%. Then `CCCOc1ccc(Nc2nc(SC)ncc2C(=O)OCC)cc1`, with 7.02%. As for `COC(=O)c1ccc(NC(=O)Nc2nnc(N(C)C3CCCCC3)s2)cc1`, the inhibition was -11.8%. The same measure for `CCOc1ccc(C(=O)Nc2ccc(-c3nc4cc(CC)ccc4o3)cc2)cc1`: 9.2%.

As for `CCc1[nH]nc2c1C(c1ccc(C)o1)C(C#N)=C(N)O2` (stereo not drawn), the inhibition was active: 63.9%. Then `CCOc1ccc(-c2ccc(NS(=O)(=O)c3cc(C)c(C)cc3C)cc2)nn1`, with -14.7%; and `O=C(CN1CCN(Cc2ccccc2F)C1=O)NC1CCCC1`, with active: 40%; and `CCN(C(=O)COc1cc(=O)n(C)c2ccccc12)c1cccc(C(F)(F)F)c1`, with 4.33%. The same measure for `CCOc1ccc(CCNC(=O)c2ccc(CS(=O)(=O)Cc3ccccc3Cl)o2)cc1OCC`: 4.04%; for `O=C(Cc1cccs1)NC1CC(=O)N(c2ccccc2)C1` (stereo not drawn): 6.69%. The same measure for `COc1ccc(-c2c(C)nn3c(C(F)(F)F)cc(-c4ccc(Br)cc4)nc23)cc1`: 16%; for `CCc1cccc(C)c1NC(=O)CN1CCCN(Cc2ccc(C)cc2)S1(=O)=O`: 0.0545%; for `CCOC(=O)c1cc(-c2ccc(F)cc2)n(CC(=O)NC2CCCCC2)c1C`: 6.49%.

For `Cc1cc(C)n2c(Nc3c(C)cccc3C)c(-c3ccsc3)nc2n1`, the inhibition worked out at 3.54%. On to `O=C(CN1CCCN(Cc2ccccc2Cl)S1(=O)=O)Nc1ccc2c(c1)OCCO2`, for which the inhibition is 0.217%. Then `Cc1nc2nc(SCC(=O)NCc3ccccc3)nn2c(C)c1Cc1ccccc1Cl`, with -9.26%; and `Cc1ccc(OCCSc2nc3ccc(NC(=O)COc4ccc(F)cc4)cc3s2)cc1`, with -22.6%; and `CCN(CC)c1ccc2cc(-c3nnc(-c4ccncc4)o3)c(=O)oc2c1`, with active: 66.3%.

For `Cc1ccc(C(=O)Sc2cccccc2=O)cc1`, the inhibition was active: 37.1%.

`CCOc1ccc(NC(=O)NC(C)c2c(-n3cccc3)sc(C)c2C)cc1` (stereo not drawn): the inhibition amounted to 0.0268%. Then `CCOc1ccccc1N1CCN(CC(=O)NC(C)c2ccccc2)CC1` (stereo not drawn), with active: 100%.

Take `Cc1cccc(OCCCCn2nnc3sc4c(c3c2=O)CCC(C)C4)c1` (stereo not drawn): the inhibition is -6.33%. With `O=C(Cn1nc(N2CCN(c3ccccc3)CC2)ccc1=O)NCc1cccc(Cl)c1`, the inhibition is 9.2%. Take `CCOC(=O)CSc1nc2sc3c(c2c(=O)n1Cc1ccccc1)CC(C)CC3` (stereo not drawn): the inhibition is 3.76%. Consider `CCOc1ccccc1CNC(=O)CN1C(=O)CCCc2ccccc21`, for which the inhibition was -0.182%. The same measure for `Cc1ccc(C)c(CN2CCC(CNC(=O)Cn3ncc4c([nH]c5ccccc54)c3=O)CC2)c1`: 8.27%; for `CCn1c2ccccc2c2nnc(N3CCN(c4cccc(C)c4C)CC3)nc21`: -25.4%. The same measure for `O=C(NCCCN1CCOCC1)c1ccc2c(c1)N(Cc1ccccc1)C(=O)c1ccccc1S2`: 15.2%. On to `CCOC(=O)c1c(C=O)c2sc(C)cc2n1C`, for which the inhibition was active: 42.5%. Then `NNC(=O)/C(=C\c1cccs1)NC(=O)c1ccccc1`, with active: 30.8%; and `COc1ccc(S(=O)(=O)NCCc2cn3ccsc3n2)cc1OC`, with 0.853%; and `CC(=O)c1cccc(NC(=O)c2ccc(C)c(S(=O)(=O)N3CCOCC3)c2)c1`, with active: 49.8%. Regarding `CCOc1ccc(N(Cc2cc3cc(C)ccc3[nH]c2=O)C(=O)c2cccc(Cl)c2)cc1`, the inhibition is 1.91%. As for `CCOC(=O)C1CCN(CCC(=O)Nc2ccccc2Cl)CC1`, the inhibition was -14.5%. As for `COC(=O)c1ccccc1NS(=O)(=O)c1ccc(F)cc1`, the inhibition is active: 32.1%.

Values taken from PubChem BioAssay AID485344 (National Center for Advancing Translational Sciences (NCATS), 2010).
